Our source for the survival values is PubChem BioAssay AID463173 (ICCB-Longwood Screening Facility, Harvard Medical School, 2010).

The whole screen tested about 52,000 compounds, of which about 4,300 (8.3%) were called active. Rule as the data show it: active = survival mostly below about 52% (no sharp cut-off); inactive = mostly above about 56%. The list shows a part of the results.

The subject of the assay is DeltatarO mutant. In words: S. aureus survival, RN4220 and DeltatarO strains – OD600, teichoic acid synthesis inhibitors, primary screen (AID 463173). As to conditions: S. aureus RN4220 wild type/DeltatarO growth, OD600, 18 h, active compounds read low, screened at 18.75 µg/mL (by protocol).
`CCC(Cc1ccccc1)NC(=O)Cn1ncc2c3ccccc3n(Cc3ccc(F)cc3)c2c1=O` (stereo unspecified): the survival is inactive: 107%.
`O=C(NCc1ccccc1Cl)C1CCN(c2ncnc3c2nc2n3CCCCC2)CC1`: the survival was inactive: 71%.
The result for `Cc1nnc(NC(=O)CSCc2cc(=O)c3ccc(C)c(C)c3[nH]2)s1` reads inactive: 73%; that for `Cc1cc(C)n2c(Nc3cccc(C(F)(F)F)c3)c(-c3ccsc3)nc2n1`, inactive: 78%.
For the molecule `COc1ccc(OC)c2sc(N(CCCN(C)C)C(=O)c3ccco3)nc12`, the survival is inactive: 126%.
The result for `COc1ccc(C2CC(=O)Oc3c2c(=O)n(C)c2ccccc32)c(OC)c1OC` (stereo unspecified) reads inactive: 56%; that for `O=C(COc1ccccc1)Nc1ccc2nc(SCC(=O)N3CCCC3)sc2c1`, inactive: 68%; that for `CC(=O)Nc1sc2c(c1C(N)=O)CCCC2`, inactive: 80%.
As for `Fc1ccc(N2CCN(c3ncnc4c3nc3n4CCCC3)CC2)cc1`, the survival is inactive: 141%.
In the case of `CCOc1ccc(NC(=O)CS(=O)(=O)Cc2nc(-c3ccc(C)cc3)oc2C)cc1`, the survival was inactive: 84%.
The result for `O=c1nc(N(c2ccccc2)c2ccccc2)[nH]c(=O)[nH]1` reads inactive: 113%.
The result for `CCSc1nnc(CNc2ccc(F)cc2)n1CC1CCCO1` (stereo unspecified) reads inactive: 91%; that for `CCOC(=O)c1ccc(NC(=O)c2ccc(-c3cccc(Cl)c3C)o2)cc1`, active: 37%; that for `CCOc1ccc(CCNC(=O)c2cc3c(-c4ccccc4F)nn(C)c3s2)cc1OCC`, inactive: 67%.
The result for `COc1ccc(C2c3c(-c4ccc(F)cc4)n[nH]c3C(=O)N2c2ccccc2)cc1OC` (stereo unspecified) reads inactive: 124%; that for `Cc1ccccc1CNC(=O)CCSCc1cnn(-c2ccccc2)c1-n1cccc1`, inactive: 64%; that for `O=c1c2oc3ccccc3c2ncn1Cc1ccc(Br)cc1`, inactive: 107%.
On to `COc1ccc(C2c3c(oc4ccccc4c3=O)C(=O)N2c2nc(C)c(C)s2)cc1` (stereo unspecified), for which the survival was inactive: 58%.
`CCC(=O)N1c2ccc(S(=O)(=O)N3CCCCCC3)cc2CC1C` (stereo unspecified): the survival is inactive: 69%.
Take `CCC(Sc1nc2cc3c(cc2c(=O)n1CCCC(=O)NCc1ccc2c(c1)OCO2)OCO3)C(=O)NCCCOC` (stereo unspecified): the survival was inactive: 76%.
The result for `Cc1ccc(NC(=O)COc2ccc(-c3nn(C)c(=O)c4ccccc34)cc2)c(C)c1` reads inactive: 73%.
The result for `Nc1c(-c2nc(-c3ccccc3Cl)no2)nnn1-c1ccccc1F` reads inactive: 79%; that for `COC(=O)c1cc2oc3ccccc3c2n1CC(=O)Nc1ccc(N(C)C)cc1`, inactive: 76%; that for `Cc1ccc(S(=O)(=O)N(CC(=O)Nc2c(C)cccc2C)c2cccc(Cl)c2)cc1`, active: 46%.
Under `Cc1nc2nc(C)c(CCC(=O)NCCc3ccccc3)c(C)n2n1` stands inactive: 81%.
For the molecule `O=C(Cn1cc(S(=O)(=O)Cc2ccccc2Cl)c2ccccc21)Nc1cccc(C(F)(F)F)c1`, the survival was inactive: 75%.
Under `CCOc1ccc(C(NC(=O)c2cc(OC)c(OC)c(OC)c2)c2cc(Cl)c3cccnc3c2O)cc1` (stereo unspecified) stands inactive: 120%.
For the molecule `Cc1ccc2nc(CN3CCN(S(=O)(=O)c4ccccc4)CC3)oc2c1`, the survival is inactive: 77%.
Take `CCc1ccc(NC(=O)CSc2nc3ccccc3c(=O)n2CCC(=O)NC2CCCCC2)cc1`: the survival is inactive: 67%.
Under `COC(=O)c1cc(C)nc2c1c(=O)nc(SCc1c(C)cc(C)cc1C)n2C1CC1` stands inactive: 79%; under `CCS(=O)(=O)N1CC(=O)N(c2ccc(C)c(C)c2)C(C)(C(=O)NC2CCCCCC2)C1` (stereo unspecified), inactive: 80%; under `Cc1cc(C)c2[nH]c(=O)c(CN(CCN3CCOCC3)C(=S)NCC3CCCO3)cc2c1` (stereo unspecified), inactive: 95%.
With `CCCN(C(=O)c1cn(CC(C)C)c(=O)c2cc(OC)c(OC)cc12)c1cccc(C)c1`, the survival was inactive: 152%.
As to `COc1ccc(-c2cn3c(n2)sc2cc(C(=O)N4CCCCC4)ccc23)cc1`, the survival is inactive: 51%.
Regarding `Cc1cc(S(=O)(=O)Nc2ccc3[nH]c(=O)sc3c2)ccc1F`, the survival was inactive: 73%.
The result for `Cn1cc(S(=O)(=O)N2CCCCC2)cc1C(=O)NCc1ccc(Cl)cc1` reads inactive: 74%; that for `CCC(=O)Nc1nnc(S(=O)(=O)N2CCCCCC2)s1`, inactive: 89%; that for `COc1ccc(NC(=O)C(NS(=O)(=O)c2cccc3nsnc23)c2ccccc2)cc1` (stereo unspecified), inactive: 90%.
For `CCOc1cc(-c2nnc(SCC(=O)NCCCOC)nc2-c2ccc(OC)c(OCC)c2)ccc1OC`, the survival is inactive: 73%.
For the molecule `CCC(CC)c1nn2cc(-c3ccccc3)nc2s1`, the survival is inactive: 112%.
`CCCCSc1nnc2c(n1)OC(c1ccc(C)s1)Nc1ccccc1-2` (stereo unspecified): the survival was active: 41%.
Take `CN=C1SC(C(=O)Nc2ccccc2)CC(=O)N1C` (stereo unspecified): the survival is inactive: 98%.
With `CCCCNC(=O)CN1CCN(c2ncc(NC(=O)c3ccc(Cl)cc3)cc2C(=O)O)CC1`, the survival was inactive: 94%.
Under `CCCOc1cccc(C2c3c(oc4ccc(F)cc4c3=O)C(=O)N2c2nc(C)c(C(C)=O)s2)c1` (stereo unspecified) stands inactive: 65%; under `Cc1cc(C)c(NC(=O)CSc2nc3c([nH]c4ccccc43)c(=O)n2C)c(C)c1`, inactive: 78%; under `COc1ccc(CCNC(=O)c2ccc(Cn3c(=O)[nH]c4cc(OC)c(OC)cc4c3=O)cc2)cc1OC`, inactive: 81%.
The result for `O=c1[nH]c2nonc2nc1/C=C(\O)c1ccccc1` reads active: 15%; that for `COc1ccccc1-c1nc(SCC(=O)c2ccc(Cl)cc2)n[nH]1`, inactive: 175%.
The result for `CCC(=O)Nc1sc2c(c1C(=O)Nc1ccc(Br)cc1)CCCCC2` reads inactive: 135%; that for `CCN(C(=O)Cn1ncc2c(=O)oc3ccccc3c21)c1ccccc1F`, inactive: 118%.
Regarding `O=c1c2ccccc2n(Cc2cccc(Cl)c2)c(=O)n1Cc1ccccc1`, the survival was inactive: 124%.
With `CN1CCN(C(CNC(=O)c2c(F)cccc2F)c2ccc3c(c2)OCO3)CC1` (stereo unspecified), the survival is inactive: 67%.
As for `CC(=O)N1N=C(c2ccccc2)CC1c1ccccc1` (stereo unspecified), the survival is inactive: 94%.
Under `Cc1cccc(N2CCN(C(=O)c3cc4ccc5cccnc5c4[nH]3)CC2C)c1` (stereo unspecified) stands inactive: 92%.
The result for `N#CC(C(=O)c1ccc(F)cc1)c1nc2ccccc2[nH]1` (stereo unspecified) reads inactive: 86%; that for `CCC(C)NC(=O)c1sc2nc3n(c(=O)c2c1C)CCC3` (stereo unspecified), inactive: 93%; that for `COCCc1nn2c(=O)cc(COC(=O)c3ccc(Br)cc3)nc2s1`, inactive: 126%.
The result for `COc1cccc2c1cc1c(=O)n(CC(=O)N3CCC(C)CC3)nc(C)n12` reads inactive: 84%.
For the molecule `O=C1NC(=O)C(Nc2cccc3ccccc23)S1` (stereo unspecified), the survival was inactive: 82%.
`COCCCNc1nc(NCc2ccc(C)cc2)c2cnn(C)c2n1`: the survival was inactive: 68%.
Under `CCCCc1nn2c(=O)cc(COC(=O)c3ccccc3C)nc2s1` stands inactive: 83%.
Under `Cc1ccc(-n2nc3c(=O)n(C(C)C(=O)NCc4ccccc4C)nc(C)c3c2C)cc1` (stereo unspecified) stands inactive: 94%; under `CCOc1ccccc1NS(=O)(=O)c1cc(-c2cnc(C3CC3)o2)ccc1C`, inactive: 116%; under `CN(Cc1ccccc1)S(=O)(=O)c1ccc2c3c(cccc13)C(=O)N2`, inactive: 82%.
The result for `CC1=CC(C)(C)N(C(=O)CNC2CCCCC2)c2cc(C)ccc21` reads inactive: 107%; that for `Cc1ccc(NC(=O)CCN2C(=O)c3ccccc3Sc3ncccc32)c(Cl)c1`, inactive: 74%.
`COc1ccccc1NC(=O)c1sc2nc(C)c(C(=O)Nc3ccc(C)cc3C)c(-c3ccccc3Cl)c2c1N`: the survival is inactive: 135%.
Under `COc1cc(OC)cc(C(=O)NCCc2csc(-c3ccc(C(F)(F)F)cc3)n2)c1` stands inactive: 81%; under `Cc1ccc2oc(=O)c3cc(C(=O)NCCc4ccc(Cl)cc4)sc3c2c1`, inactive: 93%; under `Cc1cc(C)c(O)c(N)c1`, active: 39%.
Turning to `CCc1cccc(C)c1NC(=O)CCS(=O)(=O)c1ccc2c(c1)oc(=O)n2C`, the survival was inactive: 84%.
On to `COc1cccc(CN(C(=O)c2oc3ccccc3c2C)C2CCS(=O)(=O)C2)c1` (stereo unspecified), for which the survival was inactive: 69%.
`CNC(=O)c1c(NC(=O)Cc2coc3ccc(OC)cc23)sc2c1CCCC2`: the survival is inactive: 65%.
Under `Cc1ccc(C)c(NC(=O)CSc2nc(=O)n(Cc3ccncc3)c3c2CCC3)c1` stands inactive: 73%.
The result for `CC(=O)N1c2ccc(S(=O)(=O)NCCC(=O)N(C)Cc3ccccc3)cc2CC1C` (stereo unspecified) reads inactive: 83%.
Take `Cc1cc2n(n1)CCC(=O)N2Cc1ccc(C(=O)Nc2cccc(C(F)(F)F)c2)cc1`: the survival is inactive: 101%.
The result for `CCCn1nnnc1SCC(=O)N1CCCC1` reads inactive: 94%; that for `COc1ccc(-c2noc(CSc3nc4ccccc4[nH]3)n2)cc1`, inactive: 51%; that for `Cc1ccc(Nc2c(-c3ccc(C)cc3)nc3c(C)cccn23)cc1`, active: 9%.
In the case of `CC(C)c1ccc(Nc2c(-c3ccc(N(C)C)cc3)nc3cnccn23)cc1`, the survival is active: 43%.
Under `O=C(NCCc1ccc(Cl)cc1)C(=O)NCC(c1cccs1)S(=O)(=O)c1ccccc1` (stereo unspecified) stands inactive: 77%.
Under `O=C(CSc1nnc(-c2ccccc2O)o1)Oc1ccc(OCc2ccccc2)cc1` stands inactive: 86%; under `CCCNC(=O)C(Cc1ccccc1)NS(=O)(=O)c1ccc2c(c1)c(=O)n(C)c(=O)n2C` (stereo unspecified), inactive: 94%.
For `CCOc1ccc(C(=O)Nc2ccc3c(c2)OCCO3)cc1Br`, the survival was active: 37%.
Under `Cc1ccc(-c2csc3ncnc(Nc4ccc(C(=O)O)cc4)c23)cc1` stands inactive: 118%; under `COc1cc(NS(=O)(=O)c2ccc(-c3cc(C)no3)cc2)cc(OC)c1`, inactive: 99%.
The result for `CCN(CC)S(=O)(=O)c1cccc(C(=O)NCc2ccccc2)c1` reads inactive: 49%; that for `Nc1c(-c2nc(-c3ccc4c(c3)OCO4)cs2)c2ccccn2c1C(=O)c1ccc(Cl)cc1`, inactive: 105%; that for `O=C(O)c1ccc(NC(=O)c2ccc(Br)c(S(=O)(=O)N3CCCC3)c2)cc1`, inactive: 55%.
Under `CCOc1ccc(NC(=O)Cc2c[nH]c3ccccc23)cc1` stands inactive: 80%.
As to `Cc1ccc(SCc2nc(-c3ccc(C(=O)NCC(C)c4ccccc4)cc3)oc2C)cc1` (stereo unspecified), the survival was inactive: 86%.
